Measurements reported in patent publication US4283394A, “Cytotoxic nucleoside-corticosteroid phosphodiesters” (priority 1979, dated 1981).
The name of at least one read-out is uncertain.

What was measured:
[1] = system: i.p. implanted L-1210 leukemia; test: Antitumor activity against i.p. implanted L-1210 leukemia in mice; format: in vivo
Description: The ascites cell form of L-1210 leukemia, grown in C3 D2 F1 /J female mice (supplied by Jackson Labs) were employed. The assay was performed according to National Cancer Institute (NCI) protocol 1.100 described by R. I. Gerau et al., Cancer Chemother. Rep. (Part 3) 3: (2): 7, 47 (1972) with a slight modification. Intraperitoneal implantation of 1×10^6 cells in 0.5-ml suspension to the control and the treated groups (each group comprised 8 C3 D2 F1 /J female mice, average wt 20 g) was carried out using donor mice (DBA/2Ha, supplied by Roswell Park Memorial Institute) bearing 3 day tumor growths. Compounds were dissolved in 0.9 percent NaCl and a 0.5 ml dose was administered intraperitoneally once daily. Treatment began 24 h after implantation and continued for 5 consecutive days. Control animals received a 0.5 ml injection of saline. Testing was followed as described in the NCI protocol and evaluated by recording the survival time according to the formula appearing in protocol 11.

[2] = system: i.p. implanted L1210 leukemia; test: Comparison of conjugates and ara-C plus steroid combinations, i.p. implanted L1210 leukemic mice; format: in vivo
Description: Each mouse received 1×10^6 cells intraperitoneally. Doses were administered i.p. once daily to groups of 8 mice (avg. wt. 20 g) for 5 consecutive days beginning 24 hours after tumor implantation. In case of the combination, ara-C and the steroid were given at the same molar concentrations present in the conjugates. Mean survival days were calculated by the equation appearing in the NCI protocol; T/C ratios are reported in percent, i.e (treated/control)×100.

Question: With Nc1ccn([C@@H]2O[C@H](CO)[C@@H](O)[C@@H]2O)c(=O)n1 [Ara-C, 1-β-D-Arabinofuranosylcytosine, reference compound] as the compound, how does the “Percent T/C (mean survival days treated/control × 100)” value ([1]; 25 mg/kg/day × 5 i.p.) read?
Answer: 128%

Question: What does the source list for Nc1ccn([C@@H]2O[C@H](COP(=O)(O)O)[C@@H](O)[C@@H]2O)c(=O)n1 [Ara-CMP, reference compound]?
Answer: Percent T/C (mean survival days treated/control × 100) ([1]; 50 mg/kg/day × 5 i.p.): 104%; Percent T/C (mean survival days treated/control × 100) ([1]; 100 mg/kg/day × 5 i.p.): 122%

Question: With C[C@]12C[C@H](O)[C@H]3[C@@H](CCC4=CC(=O)CC[C@@]43C)[C@@H]1CC[C@@H]2C(=O)COP(=O)(O)OC[C@H]1O[C@@H](n2ccc(N)nc2=O)[C@@H](O)[C@@H]1O [Corticosterone-p-ara-C] as the compound, how does the “Survival Days Range” value ([2]; 77.0 μmole/kg/day × 5) read?
Answer: 15 to 42 days

Question: With C[C@]12CCC(=O)C=C1CC[C@@H]1[C@@H]2[C@@H](O)C[C@@]2(C)[C@H]1CC[C@]2(O)C(=O)COP(=O)(O)OC[C@H]1O[C@@H](n2ccc(N)nc2=O)[C@@H](O)[C@@H]1O [Cortisol-p-ara-C (V), 5'-(Cortisol-21-phosphoryl)-1-β-D-arabinofuranosylcytosine] as the compound, how does the “Percent T/C (mean survival days treated/control × 100)” value ([1]; 100 mg/kg/day × 5 i.p.) read?
Answer: 154%

Question: What about the “Survival Days Range” value ([2]; 75.0 μmole/kg/day × 5) of the same compound?
Answer: 21 to 32 days

Question: For C[C@]12CCC(=O)C=C1CC[C@@H]1[C@@H]2C(=O)C[C@@]2(C)[C@H]1CC[C@]2(O)C(=O)COP(=O)(O)OC[C@H]1O[C@@H](n2ccc(N)nc2=O)[C@@H](O)[C@@H]1O [Cortisone-p-ara-C (VI), 5'-(Cortisone-21-phosphoryl)-1-β-D-arabinofuranosylcytosine], which “Percent T/C (mean survival days treated/control × 100)” value ([1]; 50 mg/kg/day × 5 i.p.) is on record?
Answer: 224%

Question: And the “Survival Days Range” value ([2]; 75.1 μmole/kg/day × 5)?
Answer: 15 to 35 days

Question: For C[C@]12CC[C@H]3[C@@H](CCC4=CC(=O)CC[C@@]43C)[C@@H]1CC[C@@H]2C(=O)COP(=O)(O)OC[C@H]1O[C@@H](n2ccc(N)nc2=O)[C@@H](O)[C@@H]1O [DOC-p-ara-C], which “Survival Days Range” value ([2]; 78.7 μmole/kg/day × 5) is on record?
Answer: 17 to 24 days

Question: Which results are given for C[C@@H]1C[C@H]2[C@@H]3CCC4=CC(=O)C=C[C@]4(C)[C@@]3(F)[C@@H](O)C[C@]2(C)[C@@]1(O)C(=O)COP(=O)(O)OC[C@H]1O[C@@H](n2ccc(N)nc2=O)[C@@H](O)[C@@H]1O [DXM-p-ara-C (III), 5'-(Dexamethasone-21-phosphoryl)-1-β-D-arabinofuranosylcytosine]?
Answer: Survival Days Range ([2]; 36.0 μmole/kg/day × 5): 7 to 15 days; Survival Days Range ([2]; 71.7 μmole/kg/day × 5): 10 to 17 days

Question: For CC12CCC(=O)C=C1CCC1C3CCC(O)(C(=O)COP(=O)(O)OCC4OC(n5ccc(N)nc5=O)C(O)C4O)C3(C)CC(O)C12F (centres unmarked) [Fludrocortisone-p-ara-C], which “Survival Days Range” value ([2]; 36.46 μmole/kg/day × 5) is on record?
Answer: 12 to 18 days

Question: How did the “Percent T/C (mean survival days treated/control × 100)” value ([1]; 50 mg/kg/day × 5 i.p.) turn out when C[C@]12C=CC(=O)C=C1CC[C@@H]1[C@@H]2[C@@H](O)C[C@@]2(C)[C@H]1CC[C@]2(O)C(=O)COP(=O)(O)OC[C@H]1O[C@@H](n2ccc(N)nc2=O)[C@@H](O)[C@@H]1O [Pred-p-ara-C (I), 5'-(Prednisolone-21-phosphoryl)-1-β-D-arabinofuranosylcytosine] was run?
Answer: 201%

Question: And the “Percent T/C (mean survival days treated/control × 100)” value ([1]; 75 mg/kg/day × 5 i.p.)?
Answer: 178%

Question: And the “Percent T/C (mean survival days treated/control × 100)” value ([1]; 100 mg/kg/day × 5 i.p.)?
Answer: 136%

Question: And the “% T/C” value ([2]; 75.0 μmole/kg/day × 5)?
Answer: 201.4%

Question: And the “Survival Days Range” value ([2]; 75.0 μmole/kg/day × 5)?
Answer: 15 to 36 days

Question: C[C@]12C=CC(=O)C=C1CC[C@@H]1[C@@H]2C(=O)C[C@@]2(C)[C@H]1CC[C@]2(O)C(=O)COP(=O)(O)OC[C@H]1O[C@@H](n2ccc(N)nc2=O)[C@@H](O)[C@@H]1O [Prednisone-p-ara-C (II), 5'-(Prednisone-21-phosphoryl)-1-β-D-arabinofuranosylcytosine] was tested. Which “Percent T/C (mean survival days treated/control × 100)” value ([1]; 75 mg/kg/day × 5 i.p.) did it give?
Answer: 153%

Question: And the “Percent T/C (mean survival days treated/control × 100)” value ([1]; 200 mg/kg/day × 5 i.p.)?
Answer: 104%

Question: And the “Survival Days Range” value ([2]; 75.4 μmole/kg/day × 5)?
Answer: 15 to 21 days
